Here are results for 14 molecules from publication PMC12136788.

This is one part of the list.

To fix the notation:
T1: UNK ZnF1-3 (human, UniProt Q9C0B0 31-174)
T1 sequence: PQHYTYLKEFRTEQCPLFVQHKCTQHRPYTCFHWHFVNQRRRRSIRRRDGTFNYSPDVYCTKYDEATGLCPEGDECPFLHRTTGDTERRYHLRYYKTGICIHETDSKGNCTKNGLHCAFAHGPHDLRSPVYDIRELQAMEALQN

B1: chr18:52893488:52893489:-_ENSG00000196628_ENST00000354452|hu_mus|FALSE|FALSE (ssRNA)
RNA: GGGAGUUCUACAGUCCGACGAUCUAUUUAGACCAUUUCCGCGGAGUUAUGGCAUUUACUCAGUGCUGAUAGGUGGAAAAACUACUUCAACAGGGAUUUUUUUUUUCCUUAAUACAUGCCAAGAUUGUGUGGCUGUCAAAACAGCAACAGAGGAUUGAGCAUCA
B2: chr11:50193004:50193005:+_ENSMUSG00000007850_ENSMUST00000069304|mus_mus|FALSE|FALSE (ssRNA)
RNA: GGGAGUUCUACAGUCCGACGAUCUGAUUCAAGUUCAACAAAAGCCUCGCCACUUGGUCUGCCUUCUCUGGUGUAGAUGAAACGAAUACCUUGAGCCCCAUUUUGAAUUUUGCAGUCAGAAAAAAAGCGCUGCACUUCAUCCGCCAACAGAGGAUUGAGCAUCA
B3: 23909521_23909641_9022_CDS_ENSG00000151835_ENST00000382298|human|control|control (ssRNA)
RNA: GGGAGUUCUACAGUCCGACGAUCUUUCUCCAUACUUGAAAAGCCUGAUCUAUUACAAAUUAGCCACGUAGUAAGAUUUCCUUCAGAGUCCUCAGUAUCCAUAGUAUAGGUUAUUUGUUGAACUGGUAUGUCUUUGAGCUGCCUCAACAGAGGAUUGAGCAUCA
B4: chr17:21088332:21088333:+_ENSMUSG00000007564_ENSMUST00000007708|mus_mus|FALSE|FALSE (ssRNA)
RNA: GGGAGUUCUACAGUCCGACGAUCCUCACUUCUGGUCCGUUCAACCCCAAGGGCCAAGGCAAUUGUGGAGAGCUUCUUGAUACUAUUGAGACGAAGCUGAACGUCCUCAUUGCGGAGUUCAUCUAUGAGCACCGCAAUAGGAUACAACAGAGGAUUGAGCAUCA
B5: chr17:65930154:65930155:-_ENSMUSG00000024091_ENSMUST00000024897|mus_hu|FALSE|FALSE (ssRNA)
RNA: GGGAGUUCUACAGUCCGACGAUCGGUGACAUUAUCUCUGAAGGAUGCAGUUGAGGUUGAUCCAGGUUUAUCCGAAUGUGCUACCUUUCUGAGCCUUAAACCUUCAUCUCUCAGGUGCCGAUUUUCUUCUGAUAGCUUCAUCAUCAACAGAGGAUUGAGCAUCA
B6: chr1:163112212:163112213:-_ENSG00000143248_ENST00000313961|hu_hu|hu_hu_hu_mus_False|98_108 (ssRNA)
RNA: GGGAGUUCUACAGUCCGACGAUCUUUAUUUAUCCAGAAGCAUGAGUUACAUACUAGGCAAAGUAUUGGAUACAAUAAUCAGGAAACAAACACUAUUGGUCCAGAAUUUAAAACUUUAUGAGCGAAGUGCUGGCACAGGACUUACAACAGAGGAUUGAGCAUCA
B7: chr2:42797587:42797588:+_ENSG00000057935_ENST00000405094|hu_hu|FALSE|FALSE (ssRNA)
RNA: GGGAGUUCUACAGUCCGACGAUCAUAAAAGCAUACUACUUUUGCUUCCACGUUGCCACUUGCAGUCUUGUUGAGUUCUUCUAUCCUUCUUAUUAGGUAUGGGUUGCUGGAGGAAUUCUCAAAGUAGACAUAAUCUCCGACCCGCAACAGAGGAUUGAGCAUCA
B8: 136535675_136535795_2550_CDS_ENSMUSG00000030213_ENSMUST00000032335|mouse|control|control (ssRNA)
RNA: GGGAGUUCUACAGUCCGACGAUCCUGAGGCUGAGAGGUCACGGCAACGGGCACAUGCAGGAUCACUGGCAAGGGCUGCAGAGAGAUUGUAGGCUGAGGGGUCCCACUAGGCACCUGAGUAGUGGCAACUACGGUGGCUGUGCUCAACAGAGGAUUGAGCAUCA
B9: chr12:103220134:103220135:+_ENSMUSG00000041781_ENSMUST00000047357|mus_mus|motif|central (ssRNA)
RNA: GGGAGUUCUACAGUCCGACGAUCAGAGAGGGUGGUUAACUUGAUGAUAGAUGUCAUCUUUCUGGUCCAGUAAUGGGUAGCGGAAAGGGCCUGCCAGGCCAAUCUCCCCCCGGCACCGUCCGCCGCCCUUCCCAACCCCUAGUGCAACAGAGGAUUGAGCAUCA
B10: chr11:106643243:106643244:-_ENSMUSG00000020719_ENSMUST00000021062|mus_hu|motif|central (ssRNA)
RNA: GGGAGUUCUACAGUCCGACGAUCGCCUGUUGGUUCAUACCAUUGUGCAUAUUUGGAACAUUACUUCCGUAUUGCUGAGUGCGGUCAUAACCAUUCUGGUAAGUCCCUGUUGGAUUACCAGUCCUAAAACUGGUCUGUAUACCACAACAGAGGAUUGAGCAUCA
B11: chr12:39756943:39756944:-_ENSG00000139116_ENST00000544797|hu_mus|hu_hu_hu_mus_False|28_28 (ssRNA)
RNA: GGGAGUUCUACAGUCCGACGAUCGGUUUGGCUGUUACCCCCAAGGGAAUCCUGCAAGAGUCUUGUCAGCUUAGAGUCUCUGUAAGGGACAUGGGUGGCUCUCUUGCUCUUGUCUCCCAAGGCGCUGAUUACAUUCCCAAGAGCCAACAGAGGAUUGAGCAUCA
B12: chr11:79252212:79252213:+_ENSMUSG00000020716_ENSMUST00000071325|mus_mus|FALSE|FALSE (ssRNA)
RNA: GGGAGUUCUACAGUCCGACGAUCAGUAGCAGACAUUUCACAUCCUACUCCAUAAAGGUAGAGAGAAUGACAGGAGCUUCUAUCUGCCUGCUUAUUUUUAAGAAGAAAUUUAUUUCUGCAGAUCAGAAUUUCCCGUAACCACUUCAACAGAGGAUUGAGCAUCA
B13: chr15:76911759:76911760:-_ENSMUSG00000033565_ENSMUST00000166610|mus_hu|FALSE|FALSE (ssRNA)
RNA: GGGAGUUCUACAGUCCGACGAUCGAGGGACAUGGAGAUAAAGGUGUUCACUAGAGGCCUCCUUUAAGGAGCCCAGCUUCCAAGAGUACAGAAAGUCCAGGUCAUGAACUAUAGUAAAGCUGAAAAAGAAUCAUGCAUGUACUGCAACAGAGGAUUGAGCAUCA
B14: 135277904_135279378_1880_CDS_ENSG00000155561_ENST00000285968|human|control|control (ssRNA)
RNA: GGGAGUUCUACAGUCCGACGAUCAAUACUGCAUUGGAGGAGUCCCAGAAUCACCACAACAGGGGUCCACUGAGGGUGUUCACAGAGUGCCAAGCGAGCAUUUUCACUCCAAGUAAUGAUGGUAGACGUGAGCUGCAAAAAAGCCAACAGAGGAUUGAGCAUCA

In the assay the target is T1, UNK ZnF1-3. The experiment in a line: nsRBNS (natural sequence RNA bind-n-seq); RBNS binding buffer (assumed for nsRBNS): 25 mM Tris pH 7.5, 150 mM KCl, 3 mM MgCl2, 0.01% Triton X-100, 500 ug/ml BSA, 20 U/ml SUPERase-In, 4 C; UNK is unkempt and MSI1 is Musashi-1; names of the RNAs are library labels; protein concentration not given here; high values mean tight binding.
As to B1, the binding signal came out at 1.27 enrichment R.

Regarding B2, the binding signal is 1.44 enrichment R.

With B3, the binding signal is 1.41 enrichment R.

For the molecule B4, the binding signal amounted to 0.71 enrichment R.

In turn, B5 gave a binding signal of 0.365 enrichment R.

B6 had a binding signal of 1.22 enrichment R.

Take B7: the binding signal was 0.885 enrichment R.

As to B8, the binding signal amounted to 1.73 enrichment R.

B9 had a binding signal of 0.616 enrichment R.

On to B10, for which the binding signal came out at 0.449 enrichment R.

B11: the binding signal came to 0.807 enrichment R.

The molecule B12 returned a binding signal of 0.977 enrichment R.

B13 registered a binding signal of 1.39 enrichment R.

Turning to B14, the binding signal came out at 2.05 enrichment R.
